# Out of some 310,000 compounds screened, about 2,200 (0.71%) showed an effect of 50% or more. The effect is printed as a negative number. Some of the results follow.
# Target: human ether-à-go-go-related gene (hERG) potassium channel (human, UniProt Q12809)
# Assay: primary screen, population patch clamp on CHO cells stably expressing hERG
# human ether-à-go-go-related gene (hERG) potassium channel, sequence (Q12809 whole entry, looked up): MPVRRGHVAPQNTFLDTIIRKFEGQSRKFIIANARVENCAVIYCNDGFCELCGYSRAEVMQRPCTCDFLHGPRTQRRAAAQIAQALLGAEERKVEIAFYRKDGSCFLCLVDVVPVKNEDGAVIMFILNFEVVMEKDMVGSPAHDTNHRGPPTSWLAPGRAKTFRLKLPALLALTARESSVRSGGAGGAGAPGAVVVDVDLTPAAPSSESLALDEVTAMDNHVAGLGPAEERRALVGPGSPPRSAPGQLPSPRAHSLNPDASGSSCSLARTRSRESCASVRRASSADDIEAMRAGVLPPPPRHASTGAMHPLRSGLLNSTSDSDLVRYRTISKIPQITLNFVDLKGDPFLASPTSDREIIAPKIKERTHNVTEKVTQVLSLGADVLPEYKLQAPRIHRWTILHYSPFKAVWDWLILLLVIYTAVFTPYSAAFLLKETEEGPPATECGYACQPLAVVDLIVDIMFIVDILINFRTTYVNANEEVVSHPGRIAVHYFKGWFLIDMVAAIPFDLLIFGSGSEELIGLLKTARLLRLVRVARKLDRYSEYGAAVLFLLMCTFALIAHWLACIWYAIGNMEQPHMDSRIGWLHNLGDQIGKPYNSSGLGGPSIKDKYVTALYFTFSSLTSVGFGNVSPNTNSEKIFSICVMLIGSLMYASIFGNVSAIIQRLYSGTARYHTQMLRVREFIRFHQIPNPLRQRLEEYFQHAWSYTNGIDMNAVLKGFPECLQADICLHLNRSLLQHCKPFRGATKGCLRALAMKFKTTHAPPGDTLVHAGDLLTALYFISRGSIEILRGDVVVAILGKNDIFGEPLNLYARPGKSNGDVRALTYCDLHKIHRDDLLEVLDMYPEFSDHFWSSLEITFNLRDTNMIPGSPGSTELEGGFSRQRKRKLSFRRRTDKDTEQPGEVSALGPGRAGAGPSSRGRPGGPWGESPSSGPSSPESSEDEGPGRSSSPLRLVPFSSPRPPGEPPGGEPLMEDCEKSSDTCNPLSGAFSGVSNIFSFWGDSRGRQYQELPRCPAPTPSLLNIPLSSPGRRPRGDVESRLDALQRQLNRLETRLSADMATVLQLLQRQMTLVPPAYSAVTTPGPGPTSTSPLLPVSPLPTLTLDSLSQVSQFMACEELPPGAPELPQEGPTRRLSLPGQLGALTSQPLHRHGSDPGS
row,Structure (SMILES),"hERG current change (%, negative = inhibition) at 1uM [%]"
1,COc1cc(C(=O)OCC(=O)N2CCCC2)cc2c1OCCO2,11.2
2,COc1ccccc1CNS(=O)(=O)c1ccc(C)cc1,9.61
3,Cc1ccc(O)c(NC(=O)C2CCCN2C(=O)OCc2ccccc2)c1 (stereo not shown),6.15
4,Cc1cc(C(=O)OCC(=O)Nc2ccccc2F)c(C)o1,4.48
5,CCN(CC)S(=O)(=O)c1ccc2[nH]c(=O)cc(C(=O)NCc3ccccc3)c2c1,14.2
6,CCC1(c2ccc(F)cc2)NC(=O)N(CC(=O)Nc2ccccc2Cl)C1=O (stereo not shown),9.67
7,Cc1ccnc(NC(=O)CCC(=O)N(CC(=O)NC2CCCCC2)CC2CCCO2)c1 (stereo not shown),6.01
8,CCN(CC)S(=O)(=O)c1ccc(=O)n(CC(=O)N2CCCc3cc(C)ccc32)c1,-0.402
9,O=C(Nc1ccc(F)cc1)Nc1ccccc1F,13.5
10,Oc1c(Br)cc(/C=N/n2c(-c3ccccc3)n[nH]c2=S)c(Br)c1O,17.1
11,CCCc1ccc(OCC(O)CN2CCc3ccccc3C2)cc1.Cl (stereo not shown),-34.3
12,COC(=O)c1nnn(-c2nonc2N)c1CN1CCc2ccccc21,11.5
13,CCCOc1ccc2cc(C(=O)NCc3ccccc3)c(=O)oc2c1,17.5
14,CCC(C)Sc1nnc(-c2c[nH]c3ccccc23)n1CCOC (stereo not shown),-2.34
15,CCCNC(=O)C1CCCN(S(=O)(=O)c2ccc3c(c2)CC(C)N3C(=O)C2CC2)C1 (stereo not shown),3.64
16,Cc1ccc(Sc2ccc(N)cc2C#N)cc1,5.85
17,Cc1cccc(N2CCN(C(=O)c3ccc(CNc4c(N5CCC(C)CC5)c(=O)c4=O)cc3)CC2C)c1 (stereo not shown),12
18,COc1cc2ccccc2cc1C(=O)Nc1ccccc1Cl,18.3
19,S=C(c1ccc(-c2ccc(Cl)c(Cl)c2)o1)N1CCOCC1,10.8
20,COC(=O)c1ccccc1NC(=O)CNCCc1ccc(OC)c(OC)c1,12.9
21,CCCn1nnc(NC(=O)c2ccc(-c3cccc(Cl)c3)o2)n1,0.301
22,Cc1nc2c3ccccc3nc(NNC(=O)CCC(=O)N3CCCC(C)C3)n2n1 (stereo not shown),16.9
23,Cc1cccc(N(C)C(=O)CN2C(=O)COc3ccc(S(=O)(=O)N4CCCCCC4)cc32)c1,20.8
24,Cc1ccc(-c2c(C)n([O-])c3c([n+]2=O)CCC3)cc1,-3.16
25,CCCCn1c(=O)c(C=Nc2cccnc2Cl)c(O)n(CCCCl)c1=O,-0.359
